# Reference: the RNAGym collection of RNA variant scans (doi:10.7554/elife.90254)
# The source gives no read counts; variants with many changes may rest on few reads.
# B1: LINE1-mini (parent)
# chain: GGCAGAGCUCAACACAGCGUGGCAAAGUGGCUGUGGCUAGACUGCC
# Variants of: B1
# Assay: self-cleavage, relative activity (ratio to wild type); higher = more cleavage; in vitro, sequencing; the parent is a self-cleaving ribozyme
row,Variant,self-cleavage
1,G5A G22U G36C,0.02
2,A12G U32G G35U,0.29
3,C10A A11G U28A U43A,0
4,G2A A12G G29U U38A G40A,0.03
5,A4U G17A G19A C23A G35C A39G A41U,0.01
6,G29C G33U C42A,0.02
7,C8U C10G G35C G40A,0.01
8,C8G C15U A16G G21U G44A,0.05
9,C10A C18G A39G A41U,0
10,G1C G7C A11G U38A C42A,0
11,A4C A14C C23U,0.1
12,G2C A11C G27A,0.01
13,C13U A26G G33A A41U,0.01
14,G2A A11G G27C,0.04
15,G2A A6C A25G G33U,0.27
16,C31U A39G U43G,0.02
17,A12G G19A G21C U28G,0.01
18,C15G G19U A26G U34G G44C,0
19,G17C G22U U28C,0.32
20,A14G U34G U43A,0
21,A6C G7A A12C G21A G40A C46A,0.01
22,G1C A12U A25C U43C,0.03
23,A11C G19C C45U,0.03
24,G7A C23G C37A G44A,0.53

row,Variant,self-cleavage
1,G5U C15U C45U,0.08
2,U9G A11C C15G G27C C46U,0.02
3,G5C U9C G30A C37U,0.04
4,C3G C13A A24G G27A,0.36
5,C8A C23U G27A C37A,0.04
6,C3G G22C U34A C37A,0.1
7,C3U A16C G33U,0.11
8,C3U A6C G29U G44U,0.08
9,C10A U20A A24C A41C,0.01
10,G5C A14U G27A,0.04
11,C8G G19C A24U,0.01
12,G7A C8A C23G U32G C42G,0.26
13,A11G G22U A24U,0.03
14,G7A C13G G22C C31G,0.05
15,C8A A26G U32A,0.23
16,A25U G30U U43C,0.22
17,G21A U38C A39C,0.17
18,G1A C13A C18G,0.06
19,C3A A11U C15A,0.06
20,A14G G19A G36U,0.01
21,G5A G7U G22U G30U G40A,1.91
22,C10A A25U U28A G33A C42U,0.01
23,G7U A16G G17C C18G G22C C23G G27U A39C G40A,0.04
24,G5A G21U G22U U43A,0.21

row,Variant,self-cleavage
1,A6G A11C C15G U20C G44A,0.01
2,G2U C3A G17A,0.16
3,C10U G17C C18G,0.02
4,G2C G7A U9A C13U G21A,0.41
5,C15U G35U C45U,0.09
6,G7U C15U G29U,0.04
7,C23U G33C C37A A39G C42G,0.01
8,C13U A16C G40C,0.04
9,A4C C8A A24C U34A,0.19
10,C18U U32G A41C C46A,0.03
11,U9G C13U G30U A39U,0.01
12,G5C A12U U28A U38A,0
13,U9G C13A A24U G30U,0.03
14,G1U G2C G17U G21C U32C C45A,0.01
15,G2A A11G C13U G30U U34C,0.06
16,C10A C15U A26G,0.05
17,G2C C8A C45G,0.08
18,A25C U32C G36A A41U,0.16
19,C10U C15G A16U G17U U20G,0.03
20,G5A U34A G35C C45A C46U,0.02
21,G7C C8G A12U A25C A26U A41G G44A,0.05
22,G2A C13G U20A A24G G35C U38A,0.08
23,G5C G22C C31U U32C G44C,0.05
24,G2A C15U A16C C42U,0.06

row,Variant,self-cleavage
1,G2A C3A U28C G36U C37A,0.32
2,G36U C37U C42A,0.01
3,U9A U20A A25U U28C G29A G36C C46A,0.25
4,A6G G19A G44A C46A,0.15
5,A11U G27A G35A,0.02
6,G2U C18A G29C U34A,0.01
7,A16G G36A C46U,0.01
8,G1A A6C C8G A24C A41C,0.05
9,G5U A11G G33A C37U,0.03
10,A4G C8G U9G C10G G29A C42G,0.01
11,G1A C10A C37U,0.05
12,G7A A25C G33U G40A,0.04
13,G2A G5A G27C G33U G40A U43C,0.23
14,C10A C18U A24U A41G,0.03
15,G7C G17U G44U C45G,0.02
16,G1C C8G A12G A25C,0.01
17,G7A G17A G36A U38G,0
18,G2A A14C U38G G40C G44A,0.09
19,G17U G30U C42G,0.03
20,G1A A11C A16U C18U C31A U34C,0.01
21,A6G C15U C45A,0.04
22,C3U G17A C18G C31G,0.04
23,G19A G36C C37U,0.02
24,A4G A6G C10U A25C,0

row,Variant,self-cleavage
1,C13G G30A U34G,0
2,U9A C13A C18U G35C C45A,0.11
3,G1C G5U A12U C18U G19C U32G U43C,0.02
4,C3G G27A G35U,0.11
5,G1C C3U G29U C37A A41C,0.02
6,G17U G30U A41U,0.08
7,A4G A14G C18G,0.03
8,C23U C31U U32G,0.03
9,C13U A14G A24C,0.11
10,G17A C23G G27U C37U,0
11,C3U A4G G7C G35U G44A,0.05
12,C13A C15U C23G C45G,0.09
13,U28G U32C A39C C42G,0.04
14,G5U A6G A24G,0.1
15,G2C C3G G5U C18G,0.03
16,G5A G17U U20A C31A C42A,0.08
17,G2A C15G A39C C45G,0.03
18,A26G C37G G44U,0.02
19,U34A G35C U38G,0
20,C3U C8G C13U C31G,0.02
21,G2A G22C A26G A41C,0.04
22,A26U G27C U32C,0.03
23,C31G G33A G35A U43C,0.1
24,A4C C8G U20C U28C,0.04

row,Variant,self-cleavage
1,G35U U38G U43A,0.03
2,U9A C15U G19U,0.35
3,G2U G5C G21A G27C G29C,0.02
4,U9G G17A U20G G27A G44C,0.06
5,C13A A14G A16C C18A A25U G29U,0.13
6,G1A C10G U28C,0.07
7,A16U G27A G36C,0.03
8,G7A G27A U43A,0.06
9,G2A C10G C37U G44U,0.02
10,A11U C37U G40A,0.03
11,C8U C10U C31U U43A,0.03
12,A11U U38A U43C,0.01
13,G5U C10A G17C A26U G40A,0.02
14,C10A C15U A16U A24C A39G G40C,0.03
15,G1C G2A G5U C10A G36A,0.02
16,G1C U20G G21C,0.09
17,C10U G22C U28A C42G,0.01
18,A12G G22A U32A,0.04
19,G1U G2C C8G C13A G17C G21A A25U,0.04
20,G1C G7A C10G C15G A24G U28A C37U,0
21,C8A C15U G33A,0.74
22,G2U A4G G21U C42G,0.01
23,C8G U28A G36A,0.19
24,C23A G35C A41U,0.08

row,Variant,self-cleavage
1,A4C G7A C10A C18A A41C,0.07
2,A12U G22U A26U,1.13
3,C8A G36U G40C,0.06
4,C3A C18A G30C G35U A41C,0.08
5,G7A C10G G19A,0
6,G7A C10A G22C C37A,0.01
7,C8A A14C C18A G21C C37G U43A,0.01
8,C8A U28A G29U G36C,0.04
9,C3A C13U G44C,0.13
10,G2U C10A G29A G30A,0.02
11,U20A A24C G29A U38A C42A,0.04
12,C3G G7A C8G C15G A25U G27U,0.13
13,U9G A14C G19C G33U,0.03
14,G2A C10A C37A,0.06
15,G5A G17A C42A,0.04
16,G21U C23U G40A C42A G44U C45U,0.02
17,C10A C13G G27A G36U U43G,0
18,G7C C8A G19A A24C A26U U28G G29U C42G U43A,0.07
19,C13U G35C G44C,0.13
20,G2A G17U G35U U38A G44U C46G,0.09
21,G21U G27A U28A,0.45
22,C18U U43G C45A,0.05
23,G21C G22A U34G,0.08
